The record followed here is article PMC7961618, “Inhibitor Development against p7 Channel in Hepatitis C Virus” (Molecules, 2021).

In this test the test system is HCV (JFH1 strain with adaptive mutations). The test is described as follows: microbe, parasite or virus in culture. The class given is cell-based. To be noted: compound 12 h, read-out: IC50 against HCV (inhibition of HCV production).
Setting [1] is: Hepatitis C virus, Huh-7.5.1, Huh7.5.1 cells infected by JFH1 at MOI 2 for 1 day.

The structures appear in SMILES notation. pIC50: −log10 of the molar value. Where two headings read alike, the source gives them in different places.

For orientation: pIC50 means the IC50 on a negative log10 scale, so that one unit is a factor of ten.

Turning to `NC(CNC(=O)CCOCCC(=O)NCC(N)C12CC3CC(CC(C3)C1)C2)C12CC3CC(CC(C3)C1)C2` (stereo not shown) [ARD87], under setting [1], the negative-log IC50 (pIC50) was 5.29. As to `CC1(NCc2nnc(-c3cc(O)cc(O)c3)[nH]2)C2CC3CC(C2)CC1C3` (stereo not shown) [ARD112], the pIC50 was 5.19 under setting [1] and 5.19 (Huh7.5.1 cells infected by JFH1 at MOI 2 for 1 day). In the case of `CC(N)C12CC3CC(CC(C3)C1)C2` (stereo not shown) [Rimantadine, reference compound], the negative logarithm of the IC50 (pIC50) under setting [1] was 4.92.
